# Data reported in PubChem BioAssay AID624418 (National Center for Advancing Translational Sciences (NCATS), 2012).
# In all, about 410,000 compounds went through this assay and about 530 (0.13%) were called active. This list was built around the results that the source calls inconclusive (neither active nor inactive); the mix of calls is not that of the screen. Calls follow the shape of the dose curve; as a rule, active = well fitted inhibition curve with a large enough effect; inconclusive = small, poorly fitted or top-dose-only effect, or another doubt; inactive = no such curve, though single readings can be large or run the other way. A potency beside an inconclusive call is a rough fit, not a confirmed value.
# Test: qHTS of GLP-1 Receptor Inverse Agonists: Cytotox Screen
# Conditions: HEK293 cAMP-luciferase reporter cells, luminescence, 24 h; series mostly up to 38.3 µM
# Method in brief: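 Quantitative HTS format, 1536 wells, 200 cells/uL seeded. Compounds: 23 nL, 24 h, 37 °C. Detection: luciferase reagent, luminescence at 12 min RT; decreased signal taken as cytotoxic.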
# Potency is read from the fitted curve at half-maximal effect.
row,Structure (SMILES),Potency
1,C[C@@H](C(=O)NCc1ccccc1)[C@H]1C[C@]1(C)[C@H](NC(=O)OCc1ccccc1)c1ccccc1,"inconclusive: 0.891 µM [inhibitor, partial curve, poor fit]"
2,O=C(CCl)N(Cc1cc(=O)[nH]c2ccccc12)c1ccccc1,"inconclusive: 28.2 µM [inhibitor, single point]"
3,COc1ccc2c(C(=O)CCl)c[nH]c2c1,"inconclusive: 28.2 µM [inhibitor, single point]"
4,Oc1cccc(/C=N/NC(=S)NCCN2CCOCC2)c1O,inactive
5,O=C(N/N=C1/C(=O)c2cccc3cccc1c23)c1ccc(Cl)cc1,"inconclusive: 31.6 µM [inhibitor, partial curve, poor fit]"
6,CC(C)(C)c1ccc2c(c1)OC(C(=O)N/N=C\c1ccccn1)CO2 (stereo unspecified),"inconclusive: 14.1 µM [inhibitor, single point]"
7,CC(=O)Nc1ccc(N=Nc2ccccc2)cc1[N+](=O)[O-],"inconclusive: 2 µM [inhibitor, full curve, poor fit]"
8,Cc1ccc(C(=O)N/C(=C\c2ccc(-c3cccc([N+](=O)[O-])c3)o2)C(=O)NCCCN(C)C)cc1,"inconclusive: 28.2 µM [inhibitor, single point]"
9,CCN1CCN(c2cc(C)c3cc(NC(=S)N4CCC5(CC4)OCCO5)ccc3n2)CC1,"inconclusive: 14.1 µM [inhibitor, partial curve, poor fit]"
10,Cc1nn(-c2ccccc2)c(N2CCCC2)c1/C=N/NC(=O)c1cc(-c2ccccn2)nc2ccccc12,"inconclusive: 15.8 µM [inhibitor, partial curve, poor fit]"
11,Cc1ccc(NC(=S)N(CCN2CCCCC2)Cc2ccco2)cc1Cl,"inconclusive: 14.1 µM [inhibitor, single point]"
12,Cc1cccc(C(=O)NN/C=C/C(=O)c2ccccc2)c1,"inconclusive: 7.94 µM [inhibitor, partial curve, poor fit]"
13,Cc1nnc(N2CCCC(C(=O)NCc3ccc(OC(C)C)cc3)C2)c2nn(-c3ccccc3)c(C)c12 (stereo unspecified),"inconclusive: 14.1 µM [inhibitor, partial curve, poor fit]"
14,CCOc1ccccc1NC(=S)NC(=O)c1ccco1,"inconclusive: 31.6 µM [inhibitor, single point]"
15,Cn1ncc2c(N3CCN(c4ccccc4Cl)CC3)ncnc21,inactive
16,CCOc1cc(/C=N/NC(=O)Cn2nc([N+](=O)[O-])cc2C)cc(Br)c1OCc1ccccc1F,"inconclusive: 28.2 µM [inhibitor, single point]"
17,O=C(Nc1cccc(C(=O)N2CCCCC2)c1)c1ccc(Cl)cc1,"inconclusive: 28.2 µM [inhibitor, single point]"
18,CN(C)c1ccc(N=C/C=C2/N(C)c3ccccc3C2(C)C)cc1,"inconclusive: 10 µM [inhibitor, partial curve, poor fit]"
19,Cc1cccc(C(=O)Nc2nnc(SCc3cc(=O)n4cccc(C)c4n3)s2)c1,inactive
20,Cc1ccc(C(=O)Nc2cccc(N3C(=O)C4CCC(C)CC4C3=O)c2)cc1 (stereo unspecified),inactive
21,O=C(Nc1cccc(C(F)(F)F)c1)N(Cc1ccc(Cl)cc1)CC(O)C(F)(F)F (stereo unspecified),"inconclusive: 28.2 µM [inhibitor, single point]"
22,CC(O)(c1ccc(F)c(F)c1)c1nc(/C=C/c2ccc(C(F)(F)F)cc2)cs1 (stereo unspecified),inactive

row,Structure (SMILES),Potency
1,COc1ccc(C(=O)N/C(N)=N/c2nc3ccccc3o2)cc1,inactive
2,O=C(COc1ccc(S(=O)(=O)N2CCOCC2)cc1)Nc1ccc(Cl)c(C(F)(F)F)c1,"inconclusive: 12.6 µM [inhibitor, single point]"
3,COc1cc2[nH]c(=S)nc(NCCCOC(C)C)c2cc1OC,inactive
4,O=C(CCn1c(=O)[nH]c2ccsc2c1=O)N1CCN(c2ccc([N+](=O)[O-])cc2)CC1,"inconclusive: 12.6 µM [inhibitor, single point]"
5,Clc1ccc(OCCSc2ncccn2)cc1,inactive
6,CCOC(=O)c1cc(-c2ccc(/C=C3/C(=O)N(c4ccc(C(=O)O)cc4)N=C3C)o2)ccc1Cl,inactive
7,CCOc1cc(/C=C\c2[nH]c(=O)[nH]c(=O)c2[N+](=O)[O-])ccc1OC(C)CC (stereo unspecified),"inconclusive: 14.1 µM [inhibitor, single point]"
8,Cc1noc(C)c1CSc1nc2ccccc2c(=O)n1-c1ccc(Cl)cc1,"inconclusive: 7.08 µM [inhibitor, partial curve, poor fit]"
9,Cc1cc(C)cc(N(CC(=O)N2CCCCCC2)S(C)(=O)=O)c1,"inconclusive: 28.2 µM [inhibitor, single point]"
10,Cc1ccc(S(=O)(=O)N2CCN(c3ccc([N+](=O)[O-])c(Sc4nncn4C)c3)CC2)cc1,"inconclusive: 10 µM [inhibitor, single point]"
11,C=C(C)CNC(=S)N/N=C(\C)c1ccc(Cl)s1,"inconclusive: 3.55 µM [inhibitor, full curve, poor fit]"
12,O=C(CSc1ncccn1)Nc1ccc2c(c1)CCC2,inactive
13,Cc1ccc(C(=O)NCCc2ccncc2)cc1,inactive
14,c1ccc2c(c1)CCN(c1ncnc3c1[nH]c1ccccc13)C2,inactive
15,CC(C)(C)c1ccc(-c2nnc(-c3ccccc3NC(=O)c3ccc(F)cc3F)o2)cc1,inactive
16,Cc1cc(NC(=S)N(CCN2CCCCC2)Cc2ccco2)ccc1Cl,"inconclusive: 28.2 µM [inhibitor, single point]"
17,O=C(Nc1ccc(Br)cc1)c1cccc(S(=O)(=O)N2CCc3ccccc32)c1,inactive
18,O=C(c1cc2cc([N+](=O)[O-])ccc2oc1=O)N1CCOCC1,"inconclusive: 15.8 µM [inhibitor, single point]"
19,COc1ccccc1CNc1nc(NCCOc2ccccc2Cl)c2sccc2n1,"inconclusive: 28.2 µM [inhibitor, single point]"
20,CC1SC(=S)N(c2ccc(N(C)C)cc2)C1=O (stereo unspecified),"inconclusive: 3.16 µM [inhibitor, full curve]"
21,Cc1oc2c(c1C(=O)c1ccccc1)C(=O)C(=O)c1ccccc1-2,"inconclusive: 8.91 µM [inhibitor, partial curve, poor fit]"
22,COc1cccc(OCc2cc(C(=O)N(C)CCOc3ccc(C)cc3)no2)c1,"inconclusive: 3.55 µM [inhibitor, full curve, poor fit]"

row,Structure (SMILES),Potency
1,Cc1ccccc1NC(=O)Cn1nnc(-c2ccc(CN3CCC(C)CC3)cc2)n1,"inconclusive: 2.51 µM [inhibitor, full curve]"
2,Cc1ccc2cc(NC(=O)c3ccccc3)ccc2n1,"inconclusive: 15.8 µM [inhibitor, partial curve, poor fit]"
3,Nc1ccc(-c2c3ccc(=O)cc-3oc3cc(O)ccc23)cc1C(=O)O,inactive
4,CC(C)C(=O)Nc1ccc(N2CCN(C(=O)c3cccs3)CC2)cc1,inactive
5,C=CCn1c(SCC(=O)NCc2ccccc2)nnc1-c1cc(Br)ccc1O,"inconclusive: 12.6 µM [inhibitor, partial curve]"
6,COc1ccccc1C/C(N)=N/OC(=O)c1cccc([N+](=O)[O-])c1C,"inconclusive: 22.4 µM [inhibitor, single point]"
7,CCC1Oc2ccccc2N(CC(=O)NCCCN2CCN(Cc3ccccc3)CC2)C1=O (stereo unspecified),"inconclusive: 12.6 µM [inhibitor, single point]"
8,Cc1ccc(CNC(=O)Nc2ccccc2)c(C)c1,"inconclusive: 28.2 µM [inhibitor, single point]"
9,O=C(NCc1cccnc1)c1cccc(NS(=O)(=O)c2ccc(Br)cc2)c1,"inconclusive: 3.16 µM [inhibitor, partial curve, poor fit]"
10,O=C(Nc1ccc(Oc2ccccc2)nc1)C1CCCCN1Cc1ccco1 (stereo unspecified),"inconclusive: 10 µM [inhibitor, partial curve, poor fit]"
11,Oc1ccc(-c2nc(-c3ccc(O)c(O)c3)cs2)cc1,"inconclusive: 1.41 µM [inhibitor, full curve]"
12,O=C(N/N=C/c1ccc([N+](=O)[O-])o1)c1cc(-c2ccncc2)nc2ccccc12,"inconclusive: 2.51 µM [inhibitor, full curve, poor fit]"
13,CC(Sc1nnc2n1CCCCC2)C(=O)Nc1cccc(S(=O)(=O)N2CCOCC2)c1 (stereo unspecified),inactive
14,CCOc1ccccc1NC(=S)/C(=C(\[O-])c1ccc2c(c1)OCCO2)[n+]1ccc(CC)cc1,inactive
15,CCOC(=O)c1sc(N2C(=O)c3oc4ccc(F)cc4c(=O)c3C2c2ccc(O)cc2)nc1C (stereo unspecified),inactive
16,CCN(CC)C(=O)Cn1cc(S(=O)(=O)CC(=O)NCc2ccc(F)cc2)c2ccccc21,"inconclusive: 14.1 µM [inhibitor, partial curve, poor fit]"
17,O=C(NC(=S)Nc1cccc(-c2ccc(CO)o2)c1)c1cccs1,"inconclusive: 28.2 µM [inhibitor, single point]"
18,O=[N+]([O-])c1ccc(/C=N/NC(=S)Nc2ccccc2F)o1,"inconclusive: 28.2 µM [inhibitor, single point]"
19,O=[N+]([O-])c1c(Nc2ccccc2)ccc2nonc12,"inconclusive: 28.2 µM [inhibitor, single point]"
20,COc1ccc(NS(=O)(=O)c2cccc(C(=O)NCC3(N4CCCCC4)CCCCC3)c2)cc1,inactive
21,COc1cccc(C(=O)Nc2cc(C(=O)NCc3ccc(C)cc3)ccc2N2CCC3(CC2)CC(c2ccccc2)=NO3)c1,"inconclusive: 0.355 µM [inhibitor, full curve, poor fit]"
22,N#Cc1cc([N+](=O)[O-])ccc1N1CCCC1,"inconclusive: 10 µM [inhibitor, single point]"
